{"source": "ChEMBL document CHEMBL4888484", "about": "“Replenishing the malaria drug discovery pipeline: Screening and hit evaluation of the MMV Hit Generation Library 1 (HGL1) against asexual blood stage Plasmodium falciparum ,using a nano luciferase reporter read-out” (2022)", "note": "The campaign covered roughly 150,000 compounds. About 540 (0.36%) showed an effect of 50% or more. Some of the results follow.", "data": [{"tested_on": "Plasmodium falciparum", "test": "Primary screen in NF54 nanoGlo assay, in single point, at 2uM, 72h; a lower Z score goes with more inhibition", "assay_type": "functional, Erythrocyte", "settings": "timepoint 72 hour", "units": {"% Inhibition": "%"}, "values": [{"smiles": "Cc1nc(C)c(-c2cccc(C(=O)NCC[C@H](C)n3ccnc3)c2)s1", "% Inhibition": -12, "Z score": 1.59}, {"smiles": "CC(C)(C)OC(=O)N1CCC2(CC1)O[C@@H](CN)Cc1ccccc12", "% Inhibition": -15, "Z score": 2.02}, {"smiles": "CCc1nnc([C@@H]2CN(c3ccnc(C(C)C)n3)CCO2)o1", "% Inhibition": -4, "Z score": 0.78}, {"smiles": "c1ccc(-c2nnc3nc(N4CCOCC4)nc(N4CCOCC4)n23)cc1", "% Inhibition": 36, "Z score": -4.69}, {"smiles": "CN(Cc1ccc(Cl)cc1)CC1(CO)CCC1", "% Inhibition": -13, "Z score": 1.38}, {"smiles": "c1cc(NC2C3CCOC3C23CCC3)c2c(c1)OCCO2", "note": "(stereo unspecified)", "% Inhibition": 1, "Z score": -0.12}, {"smiles": "COCCc1nc(CNC(=O)[C@H]2C[C@@H]2c2ccccc2)no1", "% Inhibition": 1, "Z score": -0.16}, {"smiles": "O=C(Oc1ccccc1)c1ccc(NS(=O)(=O)c2ccc(Cl)cc2)cc1O", "% Inhibition": -8, "Z score": 1.52}, {"smiles": "Cc1nscc1C(=O)OCc1cncn1C", "% Inhibition": -9, "Z score": 1.22}, {"smiles": "CCOC(=O)N1CCN(c2ncc(Cl)c(N3CCN(C(=O)OCC)CC3)n2)CC1", "% Inhibition": -16, "Z score": 3.46}, {"smiles": "O=C(O)[C@H]1C[C@H](C(=O)NCc2ccccn2)CN(CCCc2ccccc2)C1", "% Inhibition": -6, "Z score": 0.52}, {"smiles": "CC1(C)Cc2nc(N3CCOCC3)ncc2[C@@H](NC2CCC2)C1", "% Inhibition": -17, "Z score": 1.47}, {"smiles": "COc1cc(F)c(C(=O)N[C@@H](C)C2(S(C)(=O)=O)CC2)c(F)c1", "% Inhibition": -12, "Z score": 1.44}, {"smiles": "Cc1cc(C(=O)O)nn1-c1cnc2ccccc2c1", "% Inhibition": -2, "Z score": 0.31}, {"smiles": "C[C@H]1COc2ccc(C(=O)NCc3nccc(C(F)F)n3)cc21", "% Inhibition": 0, "Z score": -0.01}, {"smiles": "COc1cc2c(cc1OC)CN(C(=O)[C@H](CC(C)C)N1Cc3ccccc3C1=O)[C@H](C(N)=O)C2", "% Inhibition": 0, "Z score": -0.05}, {"smiles": "CC1(C(=O)NCC(O)C(F)(F)F)CCCO1", "note": "(stereo unspecified)", "% Inhibition": 10, "Z score": -1.27}, {"smiles": "O=C(N[C@@H]1CN(c2ncccn2)C[C@H]1CO)c1ccc(F)cc1", "% Inhibition": -12, "Z score": 1.69}, {"smiles": "CCOc1cc2cc(c1)C(=O)N(C)CC(=O)N[C@@H]1CN(C(=O)CCc3c(C)nc(O)nc3C)CC[C@@H]1OCc1cccc(c1)O2", "% Inhibition": -19, "Z score": 2.4}, {"smiles": "CC1CCC(Oc2cc(CNC(=O)N3CC4CCC3CN4)ccn2)CC1", "note": "(stereo unspecified)", "% Inhibition": -1, "Z score": 0.22}, {"smiles": "CC(C)(C)c1nc2ncccn2c1-c1ccc(C(=O)N[C@H]2CCOC2)cc1", "% Inhibition": -1, "Z score": 0.1}, {"smiles": "CCOC(=O)C(F)(F)[C@H](N)c1ccccc1", "% Inhibition": -10, "Z score": 1.24}, {"smiles": "CCN(Cc1cnn(CC)c1)C(=O)[C@@H]1CCC(=O)N(CC(C)C)[C@@H]1C", "% Inhibition": -6, "Z score": 0.82}, {"smiles": "Cc1csc(C(C)(C)NCC(=O)N(C)CC(F)(F)F)n1", "% Inhibition": -7, "Z score": 0.73}, {"smiles": "Cc1cnn(CC2CCCN2C(C)c2nnc(-c3cccs3)o2)c1", "note": "(stereo unspecified)", "% Inhibition": -12, "Z score": 1.4}, {"smiles": "CCNc1ncc(C(=O)N2CC(=O)N(c3cccc(Cl)c3)C[C@@H]2C)cn1", "% Inhibition": -11, "Z score": 2.18}, {"smiles": "COc1cccc(N2CCN(C(=O)c3cc(C)nc4c3c(C)nn4-c3cccc(F)c3)CC2)c1", "% Inhibition": -5, "Z score": 0.51}, {"smiles": "CN([C@@H](CCc1ccccc1)C(F)F)S(=O)(=O)c1cnnn1C", "% Inhibition": -7, "Z score": 1.18}, {"smiles": "Cc1ccc(-c2noc(CCn3nc(-c4ccc5c(c4)OCO5)ccc3=O)n2)cc1", "% Inhibition": -1, "Z score": 0.11}, {"smiles": "CC(C)c1nnc(CNC(=O)Cc2cc(F)c(F)cc2F)n1C", "% Inhibition": 3, "Z score": -0.44}, {"smiles": "Cc1cnc(N2CCN([C@H]3CCS(=O)(=O)C3)CC2)nc1", "% Inhibition": 3, "Z score": -0.39}, {"smiles": "COCC[C@H]1COCCN1C(=O)Cc1ccoc1", "% Inhibition": -12, "Z score": 2.26}, {"smiles": "O=C(NCc1ccc(F)cc1)c1n[nH]c2c1CN(C(=O)c1ccoc1)CC2", "% Inhibition": 10, "Z score": -1.41}, {"smiles": "O=C(Nc1ccc2c(c1)OCO2)c1ccc(=O)n(Cc2ccc(Cl)cc2)c1", "% Inhibition": -15, "Z score": 1.88}, {"smiles": "COCCC1(CNC(=O)Nc2ccccc2N(C)C)CC1", "% Inhibition": 27, "Z score": -3.03}, {"smiles": "CC(C)Cc1cc(C(=O)NC[C@H]2CN(C)C(=O)CO2)nc(N)n1", "% Inhibition": -2, "Z score": 0.45}, {"smiles": "O=C(CN1CCC[C@H](O)C1)N1CCN(Cc2ccccc2)CC1", "% Inhibition": -6, "Z score": 0.91}, {"smiles": "COc1c[nH]c(C(=O)NC2CCCC2)cc1=O", "% Inhibition": -5, "Z score": 0.85}, {"smiles": "OCCOc1ccccc1CN1CC[C@H](c2ccc(F)cc2)[C@@H](O)C1", "% Inhibition": 5, "Z score": -0.92}, {"smiles": "COc1cc(OC)cc(C(=O)N2CC[C@]3(OC)CC[C@H](OC)C[C@H]23)c1", "% Inhibition": -13, "Z score": 1.72}, {"smiles": "CCOC(=O)N1CCC(NC(=O)c2cc3ccccc3o2)CC1", "% Inhibition": -9, "Z score": 1.59}, {"smiles": "CCC[C@H]1CN(C(=O)c2cnc(O)cn2)C[C@@H]1N", "% Inhibition": -7, "Z score": 1.28}, {"smiles": "O=C([C@@H]1Cc2[nH]cnc2CN1Cc1ccc(Cl)cc1)N1CCOCC1", "% Inhibition": 4, "Z score": -0.64}, {"smiles": "C[C@H]1CS(=O)(=O)CCN1C(=O)c1csc(-c2c(F)cccc2F)n1", "% Inhibition": -12, "Z score": 1.44}, {"smiles": "O=C(NCc1nc(C2CC2)no1)Nc1ccccc1C(F)(F)F", "% Inhibition": -9, "Z score": 1.16}, {"smiles": "O=C(O)C1CC2CCCCC2N1Cc1ccc(Cl)c(Cl)c1", "note": "(stereo unspecified)", "% Inhibition": -8, "Z score": 1.17}, {"smiles": "C=CCN1CCC[C@H]1C(=O)N(Cc1cnn(C)c1)C(C)C", "% Inhibition": -10, "Z score": 1.39}, {"smiles": "O=C(Nc1cnn(C[C@H]2COc3ccccc3O2)c1)c1ccncc1", "% Inhibition": 25, "Z score": -3.2}, {"smiles": "COc1ccc(CC(=O)Nc2cc(C3CC3)nn2-c2nc(C)cc(=O)[nH]2)cc1", "% Inhibition": 0, "Z score": -0.01}, {"smiles": "Cc1nc(CN(C)Cc2ccc([C@@H]3CCCCO3)s2)cs1", "% Inhibition": -26, "Z score": 2.33}, {"smiles": "CC(=O)N1CCC(CC(=O)N2CC(n3ccnc3C(C)C)C2)CC1", "% Inhibition": 6, "Z score": -1.1}, {"smiles": "CCCc1ccc(CN(C)Cc2n[nH]c(=O)[nH]2)s1", "% Inhibition": -12, "Z score": 1.78}, {"smiles": "O=C(N[C@H]1CCCN(C2CCCC2)C1)N1CCN(c2ccccc2O)CC1", "% Inhibition": 5, "Z score": -0.66}]}]}
